In paper PMC4336329 (PLoS ONE, 2015):
Out of some 310,000 compounds screened, about 14,000 (4.5%) showed an effect of 50% or more. The effect is printed as a negative number. This is one part of the list.

target: human ether-à-go-go-related gene (hERG) potassium channel (human, UniProt Q12809); experiment: primary screen, population patch clamp on CHO cells stably expressing hERG
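Note: peak tail current of the secondary pulse compared with the same well before compound.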

Sequence of human ether-à-go-go-related gene (hERG) potassium channel (Q12809 whole entry, looked up): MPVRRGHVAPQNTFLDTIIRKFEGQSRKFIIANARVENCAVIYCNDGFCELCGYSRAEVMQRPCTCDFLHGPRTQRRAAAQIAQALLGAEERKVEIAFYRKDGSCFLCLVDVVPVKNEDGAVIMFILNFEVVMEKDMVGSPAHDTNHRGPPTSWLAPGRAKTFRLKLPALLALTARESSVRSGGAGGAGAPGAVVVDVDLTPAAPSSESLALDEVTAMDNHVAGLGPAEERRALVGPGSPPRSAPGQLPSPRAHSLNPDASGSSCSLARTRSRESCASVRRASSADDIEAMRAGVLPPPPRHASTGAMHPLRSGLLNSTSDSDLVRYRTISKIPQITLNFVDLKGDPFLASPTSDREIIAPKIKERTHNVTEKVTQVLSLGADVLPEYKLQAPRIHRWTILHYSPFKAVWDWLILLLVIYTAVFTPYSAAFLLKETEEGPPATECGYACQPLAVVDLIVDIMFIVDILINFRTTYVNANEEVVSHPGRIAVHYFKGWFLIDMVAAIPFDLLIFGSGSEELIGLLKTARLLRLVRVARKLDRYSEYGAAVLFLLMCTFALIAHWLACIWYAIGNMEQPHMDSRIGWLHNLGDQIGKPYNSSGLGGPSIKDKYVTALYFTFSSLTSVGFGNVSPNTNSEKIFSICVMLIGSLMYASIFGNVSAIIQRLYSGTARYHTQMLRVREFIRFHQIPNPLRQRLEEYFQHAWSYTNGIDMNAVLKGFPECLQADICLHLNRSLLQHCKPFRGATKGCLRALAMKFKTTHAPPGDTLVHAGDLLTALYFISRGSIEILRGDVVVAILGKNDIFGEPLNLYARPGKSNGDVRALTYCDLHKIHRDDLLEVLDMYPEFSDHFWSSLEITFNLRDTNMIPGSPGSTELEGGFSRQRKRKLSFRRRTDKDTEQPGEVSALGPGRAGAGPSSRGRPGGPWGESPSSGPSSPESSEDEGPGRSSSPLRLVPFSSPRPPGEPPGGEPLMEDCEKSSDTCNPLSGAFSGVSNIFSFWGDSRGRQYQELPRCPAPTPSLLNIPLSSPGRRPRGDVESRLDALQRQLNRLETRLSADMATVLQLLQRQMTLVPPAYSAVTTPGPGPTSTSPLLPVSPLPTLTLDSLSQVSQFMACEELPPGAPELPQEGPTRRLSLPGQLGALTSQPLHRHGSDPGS

| SMILES | hERG current change (%, negative = inhibition) at 10uM |
| --- | --- |
| Cc1ccccc1C(=O)/C(C#N)=N/Nc1c(C)n(C)n(-c2ccccc2)c1=O | -6.1% |
| COc1ccc(C2CC(c3ccccc3)=NN2C(=O)COC(=O)c2cc(S(=O)(=O)N3CCOCC3)ccc2Cl)cc1 (centres unmarked) | -5.4% |
| CCCCn1c2ccc(C)cc2c2nnc(SCCN3CCCCC3)nc21 | -74.3% |
| Cc1ccc(CS(=O)Cc2ccc(C(=O)NCc3ccccc3Br)o2)cc1 (centres unmarked) | -11.2% |
| COc1ccc(OC(C)C(=O)N(C)Cc2nc(-c3ccccc3)no2)cc1 (centres unmarked) | 15.8% |
| O=C(Nc1nc(-c2ccc(F)c(F)c2)cs1)c1ccc(OCC2CCCO2)cc1 (centres unmarked) | 5.97% |
| Cc1cc(=O)oc2c(C)c(OCC(=O)Nc3cccnc3)ccc12 | -25.3% |
| O=C(CCCN1C(=O)c2ccccc2C1=O)Nc1nnc(C2CC2)s1 | 22.5% |
| CCOC(=O)N1CCN(c2c(N3CCN(c4ccccc4F)CC3)c(=O)c2=O)CC1 | -48.3% |
| CC1CN(c2ccc(Cl)cc2[N+](=O)[O-])CCN1S(C)(=O)=O (centres unmarked) | -41.2% |
| Cc1ccccc1N=C1NC(=O)C(CO)(CO)S1 | 13.3% |
| O=C(Nc1cccc(C(=O)NC2CCCCC2)c1)c1ccccc1 | 12.1% |
| O=C(COc1ccccc1)Nc1ccc(-c2nnc(-c3ccco3)o2)cc1 | 6.25% |
| NC(=NCc1ccco1)NC(=O)c1ccc(Cl)cc1 | -10.1% |
| CCC(CC)C(=O)NN(C(=O)c1ccncc1)C1CC(=O)N(c2ccccc2)C1=O (centres unmarked) | 9.23% |
| NC(=S)N=Nc1ccc(NN=C(N)N)cc1 | 5.65% |
| CC1CN(C(=O)COC(=O)/C=C/c2ccc(C(F)(F)F)cc2)CC(C)O1 (centres unmarked) | 5.81% |
| CCCn1c(SCC(=O)NCCc2ccccc2)nnc1C(C)C | -6.81% |
| Cn1ncc(Br)c1C(=O)Nc1cccc(C(F)(F)F)c1 | 5.14% |

| SMILES | hERG current change (%, negative = inhibition) at 10uM |
| --- | --- |
| O=C(CCc1ccccc1)Nc1ccc(NC(=O)C2CCCCC2)nc1 | 7.57% |
| O=C(NNC(=O)C12CC3CC(CC(C3)C1)C2)c1ccccc1F | 4.02% |
| Cc1ccc(C(=O)NS(=O)(=O)c2ccc(C)cc2)cc1 | 36.3% |
| O=C(N1CCOCC1)N(CCN1CCOCC1)Cc1cccc2ccccc12 | -7.55% |
| CCCCN1CC[C@H]2C=CC[C@@H](C(=O)Nc3ccc(Cl)cc3Cl)[C@H]2C1=O | -43.7% |
| CS(=O)(=O)c1ccc(NCCc2ccccn2)c([N+](=O)[O-])c1 | -22.7% |
| COc1ccc(OCC(O)CN2CCN(Cc3ccc4c(c3)OCO4)CC2)cc1.Cl (centres unmarked) | -47.4% |
| CN(Cc1ccccc1)C(=O)c1nn2cccnc2c1Cl | -0.218% |
| Cc1ccccc1OCC(O)CNC1CCC(NCC(O)COc2ccccc2C)CC1 (centres unmarked) | -30.3% |
| CC1CCCCN1C(=O)COc1ccc(F)cc1 (centres unmarked) | 13% |
| COCCN(C(=S)Nc1ccccc1OC)C1CCN(C(C)C)CC1 | -18.7% |
| OCC1CCCN(c2nc(CN3CCCCC3)nc3scc(-c4ccccc4)c23)C1 (centres unmarked) | -63.7% |
| CCn1nc(C)c(C2C(C#N)=C(N)OC3=C2C(=O)CC(C)(C)C3)c1C (centres unmarked) | 2.06% |
| CCN(CCO)Cc1csc2cc(C)ccc12.Cl | -12.6% |
| COc1cccc(N=C2C(=O)N3CCCc4cccc2c43)c1 | 11.4% |
| CS(=O)(=O)N(CC(=O)N1CCN(Cc2ccc3c(c2)OCO3)CC1)C1CCCCC1 | -1.17% |
| O=C(c1ccc(CS(=O)Cc2ccccc2Cl)o1)N1CCN(c2cccc(Cl)c2)CC1 (centres unmarked) | -41.8% |
| CCN(C(=S)NC(=O)C1CCCC1)C1CCCCC1 | 14.6% |
| O=C1C(=O)N(Cc2cccs2)c2ccccc21 | -5.14% |

| SMILES | hERG current change (%, negative = inhibition) at 10uM |
| --- | --- |
| COC(=O)c1c(Cl)c2n3ccccc3c(C)c(-c3ccccc3)c-2c1C(=O)OC | -18.2% |
| COc1ccc(NC2CCCN(C(=O)c3cccc(N4CCNC4=O)c3)C2)cc1 (centres unmarked) | 16.4% |
| COc1ccc2c(c1)c(C(=O)O)c(C)n2-c1ccc(Cl)cc1 | 16.7% |
| COc1ccccc1C(=O)N1N=C(c2ccc(NS(C)(=O)=O)cc2)CC1c1cccs1 (centres unmarked) | -29.1% |
| O=C(NCc1ccco1)C1CC(=O)N(c2cccc(Cl)c2)C1 (centres unmarked) | -11% |
| O=S(=O)(c1ccc(Cl)c(NC(=S)Nc2ccccc2N2CCOCC2)c1)N1CCOCC1 | 4.99% |
| COc1ccc(C2(C)NC(=O)N(CC(=O)Nc3c(C)n(C)n(-c4ccccc4)c3=O)C2=O)cc1 (centres unmarked) | 23.9% |
| COC(=O)c1ccccc1OC(=O)c1cc2ccccc2oc1=O | 19.9% |
| O=C(CSc1nc2c(sc3ccccc32)c(=O)n1CCCN1CCCC1)NCc1ccccc1 | -80.8% |
| CCOC(=O)CCc1c(C)c2ccc(OCC(=O)OC(C)C)cc2oc1=O | -7.25% |
| Cc1ccc(C)c(C(=O)COC(=O)CN2C(=O)C3C4CCC(C4)C3C2=O)c1 (centres unmarked) | 3.74% |
| O=C(NCc1ccccc1)c1c(O)c2cccc3c2n(c1=O)CCC3 | 5.37% |
| Cc1ccccc1OCC(=O)Nc1ccc2c(c1)C(=O)N(CCC(=O)O)C2=O | -2.34% |
| CCOC(=O)N1CCN(C(=O)CSc2nnc(-c3cccc(Cl)c3)o2)CC1 | -10.5% |
| O=C(Nc1cc(=O)[nH]c2nc(-c3ccccc3)nn12)c1ccc(Cl)cc1 | 14.3% |
| Cc1cccc(-c2nnc(SCC(=O)O)n2Cc2ccccc2)c1 | -6.26% |
| Cl.OC(c1cccc(Cl)c1)(c1cccc(Cl)c1)C1CN2CCC1CC2 (centres unmarked) | -81.8% |
| CCCc1cc(=O)oc2c(C)c(OCC(=O)N3CCC[C@@H]3C(=O)O)ccc12 | 11.7% |
